Experimental data reported in the supplement of paper PMC4967469.
By IC50 is meant the dose at which the fit gives 50% viability; fits outside the tested doses are given as limits. The AUC spans the tested range (256-fold, ending at the top dose) of the same fit; the more sensitive the line, the further below 1. For part of these data: The top dose, if marked as inferred, was derived from the fitted curves, not read from the paper. For part of these data: An entry number marks a drug with two screens in the source, which often give different values.

Tests used:
Assay in all cases: Viability of human cancer cell lines after 72 h of drug (GDSC screen)
NSC-87877 = compound: O=S(=O)(O)c1ccc2cc(N=Nc3cc(S(=O)(=O)O)c4cccnc4c3O)ccc2c1 [NSC-87877]; settings: top dose 16 µM; top dose inferred
Protocol: (§1)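 Human cancer cell lines in 384-well plates, medium with 10% serum, drug for 72 h over a 256-fold dose range (nine 2-fold or five 4-fold steps up to the top dose). Adherent lines were fixed and stained with the nucleic acid dye Syto60, suspension lines read with resazurin; signal relative to control wells, capped at 0 and 100%. One two-parameter sigmoid per drug and line, fitted in a mixed model over all curves with the slope shared within a line.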

HG-5-88-01 = compound: COc1cc(N2CCC(C(N)=O)CC2)ccc1Nc1nc(N)c(Cl)c(Nc2ccccc2S(=O)(=O)C(C)C)n1 [HG-5-88-01]; settings: top dose 10 µM; top dose inferred
Protocol: as §1

VNLG/124 = compound: CCCC(=O)OCc1ccc(OC(=O)/C=C(C)/C=C/C=C(C)/C=C/C2=C(C)CCCC2(C)C)cc1 [VNLG/124]; settings: top dose 5.12 µM; top dose inferred
Protocol: as §1

OSI-930 = compound: O=C(Nc1ccc(OC(F)(F)F)cc1)c1sccc1NCc1ccnc2ccccc12 [OSI-930]; settings: top dose 10.24 µM
Protocol: as §1

LAQ824 = compound: O=C(/C=C/c1ccc(CN(CCO)CCc2c[nH]c3ccccc23)cc1)NO [LAQ824]; settings: top dose 1.024 µM; top dose inferred
Protocol: as §1

Elesclomol = compound: CN(NC(=O)CC(=O)NN(C)C(=S)c1ccccc1)C(=S)c1ccccc1 [Elesclomol]; settings: top dose 0.2 µM; top dose inferred
Protocol: as §1

BX-912 = compound: O=C(Nc1cccc(Nc2ncc(Br)c(NCCc3cnc[nH]3)n2)c1)N1CCCC1 [BX-912]; settings: top dose 10.24 µM; top dose inferred
Protocol: as §1

Masitinib = compound: Cc1ccc(NC(=O)c2ccc(CN3CCN(C)CC3)cc2)cc1Nc1nc(-c2cccnc2)cs1 [Masitinib]; settings: top dose 20 µM
Protocol: as §1

Bleomycin = compound: Cc1c(N)nc([C@H](CC(N)=O)NC[C@H](N)C(N)=O)nc1C(=O)N[C@H](C(=O)N[C@H](C)[C@@H](O)[C@H](C)C(=O)N[C@H](C(=O)NCCc1nc(-c2nc(C(=O)NCCC[S+](C)C)cs2)cs1)[C@@H](C)O)[C@@H](OC1OC(CO)C(O)C(O)C1OC1OC(CO)C(O)C(OC(N)=O)C1O)c1cnc[nH]1 [Bleomycin]
Protocol: as §1

Tamoxifen = compound: CC/C(=C(\c1ccccc1)c1ccc(OCCN(C)C)cc1)c1ccccc1 [Tamoxifen]; settings: top dose 5 µM
Protocol: as §1

[1] = top dose 50 µM, screen: GDSC drug entry 1378, top dose inferred
[2] = top dose 64 µM, screen: GDSC drug entry 190

Cell Line | AUC (NSC-87877) | IC50 (NSC-87877) [µM] | AUC (HG-5-88-01) | IC50 (HG-5-88-01) [µM] | AUC (VNLG/124) | IC50 (VNLG/124) [µM] | AUC (OSI-930) | IC50 (OSI-930) [µM] | AUC (LAQ824) | IC50 (LAQ824) [µM] | AUC (Elesclomol) | IC50 (Elesclomol) [µM] | AUC (BX-912) | IC50 (BX-912) [µM] | AUC (Masitinib) | IC50 (Masitinib) [µM] | AUC (Bleomycin; [1]) | IC50 (Bleomycin; [1]) [µM] | AUC (Bleomycin; [2]) | IC50 (Bleomycin; [2]) [µM] | AUC (Tamoxifen) | IC50 (Tamoxifen) [µM]
K-562 (chronic myeloid leukaemia, suspension) | 0.949 | > 16 | 0.986 | > 10 | 0.982 | > 5.12 |  |  |  |  |  |  |  |  |  |  |  |  |  |  |  | 
EVSA-T (breast, adherent) | 0.985 | > 16 | 0.991 | > 10 | 0.98 | > 5.12 | 0.968 | > 10.2 | 0.489 | 0.0601 | 0.682 | 0.037 | 0.983 | > 10.2 | 0.885 | 16.4 | 0.555 | 4.33 | 0.966 | > 64 |  | 
NB69 (neuroblastoma, adherent) | 0.989 | > 16 | 0.656 | 1.6 | 0.987 | > 5.12 | 0.99 | > 10.2 | 0.344 | 0.025 | 0.186 | 0.00166 | 0.714 | 2.37 | 0.888 | 18.1 | 0.121 | 0.236 | 0.305 | 1.22 |  | 
SNU-C2B (large intestine, adherent) | 0.974 | > 16 | 0.942 | > 10 | 0.979 | > 5.12 | 0.925 | > 10.2 | 0.42 | 0.036 | 0.62 | 0.0296 | 0.964 | > 10.2 | 0.933 | > 20 | 0.595 | 6.18 | 0.434 | 2.49 |  | 
ES-2 (ovary, adherent) | 0.982 | > 16 | 0.99 | > 10 | 0.991 | > 5.12 | 0.975 | > 10.2 | 0.672 | 0.18 | 0.353 | 0.00519 | 0.929 | > 10.2 | 0.9 | > 20 | 0.25 | 0.666 | 0.417 | 2.44 |  | 
SF295 (glioma, adherent) | 0.984 | > 16 | 0.956 | > 10 | 0.972 | > 5.12 | 0.965 | > 10.2 | 0.446 | 0.0449 | 0.499 | 0.0124 | 0.965 | > 10.2 | 0.887 | > 20 | 0.451 | 2.27 | 0.112 | < 0.25 |  | 
SK-MEL-28 (melanoma, adherent) | 0.965 | > 16 | 0.962 | > 10 | 0.982 | > 5.12 | 0.983 | > 10.2 | 0.742 | 0.31 |  |  | 0.972 | > 10.2 | 0.897 | > 20 | 0.945 | > 50 | 0.97 | > 64 |  | 
HCT-116 (large intestine, adherent) | 0.969 | > 16 | 0.923 | > 10 | 0.987 | > 5.12 | 0.736 | 2.9 |  |  | 0.695 | 0.0428 | 0.769 | 3.67 | 0.757 | 6.58 |  |  |  |  |  | 
SW620 (large intestine, adherent) | 0.99 | > 16 | 0.956 | > 10 | 0.988 | > 5.12 | 0.916 | > 10.2 |  |  | 0.539 | 0.0158 | 0.732 | 2.66 | 0.885 | 17.4 | 0.779 | 18 | 0.512 | 4.31 |  | 
A549 (lung adenocarcinoma, adherent) |  |  | 0.904 | > 10 |  |  |  |  |  |  | 0.422 | 0.00743 |  |  |  |  |  |  |  |  |  | 
AsPC-1 (pancreas, adherent) |  |  | 0.792 | 8.92 | 0.966 | > 5.12 | 0.975 | > 10.2 | 0.513 | 0.0713 | 0.652 | 0.0447 | 0.969 | > 10.2 | 0.974 | > 20 | 0.896 | > 50 | 0.824 | > 64 |  | 
HCC202 (breast, adherent) |  |  | 0.977 | > 10 | 0.978 | > 5.12 |  |  | 0.356 | 0.0217 | 0.781 | 0.12 | 0.899 | > 10.2 |  |  | 0.935 | > 50 | 0.75 | 28.6 |  | 
ZR-75-30 (breast, adherent) |  |  | 0.966 | > 10 |  |  |  |  |  |  | 0.428 | 0.00718 |  |  |  |  | 0.968 | > 50 |  |  |  | 
T-24 (bladder, adherent) | 0.989 | > 16 | 0.949 | > 10 | 0.977 | > 5.12 | 0.988 | > 10.2 | 0.699 | 0.225 |  |  | 0.943 | > 10.2 | 0.892 | > 20 | 0.141 | 0.254 | 0.27 | 0.916 |  | 
Jurkat (T-cell leukaemia, suspension) |  |  | 0.972 | > 10 |  |  |  |  |  |  |  |  |  |  |  |  | 0.559 | 4.38 |  |  |  | 
OVCAR-3 (ovary, adherent) | 0.984 | > 16 | 0.936 | > 10 | 0.958 | > 5.12 | 0.983 | > 10.2 | 0.407 | 0.0346 |  |  | 0.979 | > 10.2 | 0.986 | > 20 | 0.507 | 3.26 | 0.786 | 30.8 |  | 
NCI-H358 (lung adenocarcinoma, adherent) | 0.981 | > 16 |  |  | 0.981 | > 5.12 | 0.928 | > 10.2 | 0.448 | 0.0454 | 0.766 | 0.0819 | 0.854 | 9.53 | 0.87 | > 20 | 0.85 | 44.4 | 0.267 | 0.798 | 0.982 | > 5
